# From the supplement of paper PMC11417369
# ± gives the standard deviation of the averaged measurements. The list shows a part of the results.
# Test system: PfAP2-LT AP2 domain (GST-tagged)
# Assay: gcPBM binding intensity (ln(normalized median fluorescence intensity)); higher = stronger DNA binding
# How it was run: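 The highest Masliner-normalised natural-log median intensity across replicate spots of either probe orientation is reported as binding intensity. GST-tagged P. falciparum DNA-binding domains expressed in E. coli were applied for 1 h to an Agilent 4 × 180k array of primer-extended double-stranded 36-bp intergenic genomic probes plus negative controls, and bound protein was detected with Alexa488 anti-GST antibody and scanned at 488 nm.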
row,Sequence,gcPBM binding intensity (ln)
1,AGGATAATATACAAAAGTACATAAAACTAAAAAAAC [XGTACX_site605],9.09 ± 0.54
2,AAAGAAAGAAAGAATACACACACACCGATATATATA [CACACA_site9246],9.77 ± 0.31
3,AACATATATTTTGAAACACACACATATATAATATAC [CACACA_site8301],9.27 ± 0.3
4,TTTTATATATAATTCACACAAAAAAGATACATAAGA [CACACA_site5332],8.54 ± 0.4
5,ACAACACATATTCATCGTACATGTATTAGGAAGACA [XGTACX_site1859],9.04 ± 0.42
6,ATAAAAATATAATTGAGTACATATGAATAGTCCTAT [XGTACX_site6281],8.65 ± 0.42
7,ATTTTGTTTTTTTTTGCACACCATAAGGAGTGTAGG [CACACA_site1414],8.96 ± 0.34
8,TAAGCAAAAATAATTACACACAAATTTATAAAAAAT [CACACA_site3377],8.96 ± 0.41
9,TATATAAAAATATGTTGTACGCATTTATAAATATAT [XGTACX_site3758],8.68 ± 0.4
10,GGTGTATGTTAAAGGAGTACATATATATATATATAT [XGTACX_site7727],9.85 ± 0.37
11,TATTTTTATTTATAACGTACGAAAAATGTATATAAT [XGTACX_site703],8.54 ± 0.43
12,CATACACATTTCATATGTACATAGATTGAAGGGAAG [XGTACX_site116],8.93 ± 0.41
13,TAGTATTTATATGTTATATATATAAAATAATACAGT [XGTACX_negctrl_site571],8.86 ± 0.48
14,ATATCTAATAAAAATACACACACATATGATTTGTGA [CACACA_site8558],9.06 ± 0.35
15,TATATAGAATTATATGCATGTTCAAAAAAATACAAC [TGCATGCA_site431],8.72 ± 0.39
16,AATAGTTCTTGAACGTGTACATAAAATATAATTTAC [XGTACX_site11],8.72 ± 0.43
17,TTCTATTTTTTAAAAGTGCATATTATAAATATATAT,8.39 ± 0.54
18,GAAATCTAAATAGAAACACACATATATAAATAAATA [CACACA_site7762],8.83 ± 0.57
19,GAATAATCCAAACACACACACACACCCGAATAAATA [CACACA_site482],10.3 ± 0.45
20,TGTGTATAAATATACACACACATATAAATATTTTAA [CACACA_site7005],9.09 ± 0.35
21,TATTTAAAAAATAATACACACATAATATAACAAAAT [CACACA_site3174],9.06 ± 0.38
22,ACATATAATATAAATTGTACATATAAATATATTATT [XGTACX_site4268],8.71 ± 0.39

row,Sequence,gcPBM binding intensity (ln)
1,TTTACAACATCAAAATGTACGCATTATTATTATTAA [XGTACX_site3017],8.48 ± 0.43
2,TGGAGGTCAGTTCACAGTACCCAGGAAATCTGCGGA [XGTACX_site2556],8.53 ± 0.47
3,ATGCATAATATACTCTTACACACCATTTCTATATAC [CACACA_site1461],9.21 ± 0.4
4,TTCACTTTTTTTTTTTTTTTTTTTTTTTTTTTTATT [GTGCAC_negctrl_site350],8.47 ± 0.57
5,TATAACATAGGACACACACACATACATACACAAAAA [CACACA_site5062],9.88 ± 0.41
6,TCATATATTTTATACATACACACATATATATATTTT [CACACA_site3941],9.12 ± 0.48
7,ACGTTATACACAGTACGTACATAACTATCTAAATGT [XGTACX_site5068],8.98 ± 0.29
8,TTTTTTTTTTTTTTTTTTTTTTTTTTGTTCAGGCCT [GTGCAC_negctrl_site143],8.2 ± 0.57
9,ACGTAATAAAATAGTTGTACAACTTTTTATAATATA [XGTACX_site4393],8.67 ± 0.4
10,AAACGATTAATGTGTACACACATAGTTATAAACCTA [CACACA_site2110],9.23 ± 0.45
11,TATATATATATTATATGTACGTATGTATGTATATAT [XGTACX_site6451],8.88 ± 0.3
12,TCATAAATATGAAAAAGTACAAAGGTAGATTTTGAA [XGTACX_site4535],8.71 ± 0.5
13,ATAAATATCTAGGGTTCACACATTATATATCTGTAT [CACACA_site5702],8.92 ± 0.47
14,CGTGAATATATGATATGTACTTATAAAAATTTGTGC [XGTACX_site5480],8.72 ± 0.4
15,ACAAAGTTATAATTCTTGCACTTTAAGGTTCATTTA,8.62 ± 0.5
16,GGTATACACAAGTATACACACATATATATATATATA [CACACA_site9063],10.16 ± 0.099
17,TTTTCCTCTTAAAATATACACACTGATTTAAGAAAA [CACACA_site3301],8.31 ± 0.33
18,AGTAACAAAAGAAAAAAATATGCAAACATATATATA [XGTACX_negctrl_site468],8.82 ± 0.54
19,TTCATTTTTTGCTTTCAACACACATACAATATATAT [CACACA_site9369],8.96 ± 0.52
20,AGAAATATATATATATATATATATATATATATATAT [TGCATGCA_negctrl_site375],10 ± 0.3
21,TTTTTCTTTTTTTCTTTTTTTATAAAACTTAATTGT [CACACA_negctrl_site384],8.51 ± 0.56
22,AAAAAAAAAAAAAAATATATATATATATACATACAT [CACACA_negctrl_site317],8.89 ± 0.3
